Data: PubChem BioAssay AID1508642 (National Center for Advancing Translational Sciences (NCATS), 2021)
In all, about 43,000 compounds went through this assay and about 200 (0.47%) were called active. Inconclusive results, whose numbers are uncertain, are shown with a selection of clear calls. Calls follow the shape of the dose curve; as a rule, active = well fitted cell-killing curve with a large enough effect; inconclusive = small, poorly fitted or top-dose-only effect, or effect the other way; inactive = flat fitted curve, though single readings scatter. Potencies beside an inconclusive call are fits to weak or partial responses and may not hold up.

assay: Cell viability qHTS assay in S16 Pmp22-F2sN cells; conditions: S16 Pmp22-F2sN Schwann cells viability, CellTiter-Glo, 24 h; series mostly up to 57.5 µM; also: nearly all actives have a fitted effect of over 65% in size
Procedure, shortened: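 Viability was measured by CellTiter-Glo luminescence (15 min, room temperature). This followed 24 h at 37 °C of compound exposure (23 nL pin transfer) in S16 Pmp22-F2sN Schwann cells, 500-1,000 per well.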
Potency is read from the fitted curve at half-maximal effect; tags tell the direction and shape of the fitted curve.

Row | SMILES | Potency
1 | CCOc1ccc(CN2C(=O)c3ccccc3Sc3ccc(C(=O)O)cc32)cc1 | inconclusive: 35.5 µM [cytotoxic, single point]
2 | O=C(NCCc1ccc(Cl)cc1)C(=O)NCC(c1ccco1)S(=O)(=O)c1ccc(Cl)cc1 (stereo not drawn) | inconclusive: 20 µM [cytotoxic, partial curve, poor fit]
3 | CSc1ccc(/C=C/c2nc3ccccc3n2S(=O)(=O)c2cccc(Cl)c2)cc1 | inconclusive: 39.8 µM [cytotoxic, single point]
4 | CCC(CC)C(=O)Nc1nnc(SCc2cc(=O)n3cccc(C)c3n2)s1 | inconclusive: 31.6 µM [cytotoxic, partial curve, poor fit]
5 | CCOC(=O)c1ccc(NC(=O)CSc2cc(=O)n(CC)c3ccccc23)cc1 | inconclusive: 28.2 µM [cytotoxic, single point]
6 | COc1ccc(-c2nc(CSCC(=O)N3CCN(c4ccc(F)cc4)CC3)c(C)o2)cc1 | inconclusive: 2.24 µM [cytotoxic, full curve, poor fit]
7 | Fc1ccc(C2=CC(c3ccc(F)cc3)n3c(nc4ccccc43)N2)cc1 (stereo not drawn) | inactive
8 | COc1ccc(NS(=O)(=O)c2ccc3nc(-c4ccccc4)[nH]c3c2)cc1 | inconclusive: 20 µM [cytotoxic, partial curve, poor fit]
9 | Cc1cccc(Cc2c(C)nc3c(-c4ccccc4)c(C)[nH]n3c2=O)c1 | inconclusive: 35.5 µM [cytotoxic, single point]
10 | CCOC(=O)C1=C(CN2CCN(c3cccc(Cl)c3)CC2)NC(=O)NC1c1ccc(Cl)cc1 (stereo not drawn) | inactive
11 | Cc1ccc(NC(=O)Cc2coc3ccc(C(C)C)cc23)cc1Cl | inconclusive: 25.1 µM [cytotoxic, single point]
12 | COc1ccccc1OC(C)C(=O)Nc1cccc(-c2nc3ccccc3o2)c1 (stereo not drawn) | inconclusive: 39.8 µM [rising, single point]
13 | Cc1ccc(NC(=O)c2cnn3c2NC(c2ccccc2)=CC3c2ccccc2)cc1 (stereo not drawn) | inconclusive: 39.8 µM [cytotoxic, single point]
14 | CCC(Sc1nnc(C)n2c1cc1occc12)C(=O)Nc1ccccc1OC (stereo not drawn) | inactive
15 | CC(C)c1nc2ccc(C(=O)Nc3ccccc3F)cc2o1 | inconclusive: 7.08 µM [cytotoxic, full curve, poor fit]
16 | Cc1ccc2nc3c(cc(C#N)c(=O)n3-c3nnc(SCc4ccccc4)s3)c(=O)n2c1 | inconclusive: 12.6 µM [cytotoxic, partial curve, poor fit]
17 | CCCn1c2ccccc2c2cnn(CC(=O)N3CCN(c4ccccc4)CC3)c(=O)c21 | inactive
18 | CCOc1cc(C#N)c(NC(=O)Cn2nnc(-c3ccc(C)cc3)n2)cc1OCC | inconclusive: 39.8 µM [cytotoxic, single point]
19 | CCCCN1C(=O)C(O)(CC(=O)c2ccc(C(C)(C)C)cc2)c2ccccc21 (stereo not drawn) | inconclusive: 39.8 µM [cytotoxic, single point]

Row | SMILES | Potency
20 | CCOC(=O)c1c(NC(=O)c2nc(S(C)(=O)=O)ncc2Cl)sc(C(C)=O)c1C | inconclusive: 39.8 µM [cytotoxic, single point]
21 | CC(C)(C)OC(=O)N1CCC(c2c(C(=O)NCCN3CCc4ccccc4C3)cnn2-c2ccc(F)cc2)CC1 | inconclusive: 20 µM [cytotoxic, single point]
22 | CSc1nc(Nc2ccc(F)cc2)cc(-c2ccccc2)n1 | inconclusive: 39.8 µM [cytotoxic, single point]
23 | CCc1ccccc1NC(=O)CN(c1ccccc1)S(=O)(=O)c1ccsc1C(=O)OC | inactive
24 | CCC(=O)C1=C(c2ccc(F)cc2)N(C(=O)CC)n2cnnc2S1 | inconclusive: 22.4 µM [cytotoxic, single point]
25 | CCSc1nc2n(n1)C(c1ccc(Cl)cc1Cl)C(C(=O)Nc1ccccc1C)=C(C)N2 (stereo not drawn) | inconclusive: 35.5 µM [cytotoxic, single point]
26 | Cc1nc(SCc2cccc(Cl)c2)nc2c1CCCC2 | inconclusive: 7.94 µM [cytotoxic, single point]
27 | Fc1ccc(NCc2ccccc2-c2nnc(-c3ccccc3Cl)o2)cc1 | inactive
28 | Cc1ccc(Cl)cc1N1CCN(C(=O)Cn2ncc3c4ccccc4n(C)c3c2=O)CC1 | inconclusive: 2.82 µM [rising, full curve, poor fit]
29 | O=C(NCCCN1CCN(c2cccc(Cl)c2)CC1)c1sc2ncccc2c1-n1cccc1 | inconclusive: 20 µM [cytotoxic, single point]
30 | Cc1ccc(-c2csc(-c3cc4c([nH]c3=O)CC(c3ccccc3)CC4=O)n2)cc1 (stereo not drawn) | inactive
31 | Cc1c(Cl)cccc1NS(=O)(=O)c1ccc(-c2cnc(C3CC3)o2)cc1 | inconclusive: 4.47 µM [cytotoxic, single point]
32 | Cc1ccc(-n2ncc3c(NCCCN4CCOCC4)ncnc32)cc1Cl | inconclusive: 35.5 µM [cytotoxic, single point]
33 | COc1cc2[nH]c(=O)n(Cc3ccc(C(=O)NCc4ccccc4)cc3)c(=O)c2cc1OC | inconclusive: 17.8 µM [rising, single point]
34 | CC1=C(c2ccc(C)c(C)c2)S(=O)(=O)N=C1N1CCC(C(=O)NCCc2ccc(Cl)cc2)CC1 | inconclusive: 25.1 µM [cytotoxic, single point]
35 | CCOC(=O)c1c(C)[nH]c(C)c1S(=O)(=O)N1CCC(C(=O)N2CCN(c3ccc(Cl)cc3)CC2)CC1 | inconclusive: 39.8 µM [cytotoxic, single point]
36 | O=C(c1ccc(C(F)(F)F)cc1)N1CCC(c2nc(-c3ccc(S(=O)(=O)N4CCCC4)cc3)no2)CC1 | inconclusive: 6.31 µM [cytotoxic, partial curve, poor fit]
37 | CCN1CCN(c2cc(C)c3cc(NC(=O)c4cccc(C(F)(F)F)c4)ccc3n2)CC1 | inconclusive: 28.2 µM [cytotoxic, single point]
38 | COc1ccc(C(=O)Nc2cc(-c3cccc(C)c3)nn2-c2ccccc2)cc1 | inconclusive: 10 µM [cytotoxic, partial curve, poor fit]
